# From the supplement of paper PMC11417369
# ± gives the standard deviation of the averaged measurements. The list shows a part of the results.
# Test system: PfAP2-LT AP2 domain (GST-tagged)
# Assay: gcPBM binding intensity (ln(normalized median fluorescence intensity)); higher = stronger DNA binding
# In short: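 GST-fused DNA-binding domains of P. falciparum, expressed in E. coli, were applied at about 25 μg on average for 1 h to an Agilent 4 × 180k array of primer-extended double-stranded 36-bp intergenic genomic probes and negative controls. Binding intensity is the highest Masliner-normalised natural-log median intensity across replicate spots of either probe orientation, measured with Alexa488 anti-GST antibody and a 488 nm scan.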
row,Sequence,gcPBM binding intensity (ln)
1,ATAATAAAATAAATCACACATAATATAATGTAATAT [CACACA_site6144],8.98 ± 0.4
2,TATATTTACATTGTAACACACATGAAATATTTATAT [CACACA_site6178],8.86 ± 0.39
3,ATGTACATTTTTTTCACACATACATTAATTTATGAG [CACACA_site5801],8.8 ± 0.43
4,TATGTTATATTATAAGGATAAATTTTGATTATATAA [TGCATGCA_negctrl_site600],8.19 ± 0.43
5,AGAATAAAAAGGAACACACACACACCCATATATATA [CACACA_site3590],10.1 ± 0.5
6,TAGACTAATCCCAAAAGTACAGAAAAATTATATTAT [XGTACX_site8663],8.65 ± 0.42
7,TAATTTCTTATGTATTGTACATATAATATATGATAT [XGTACX_site4898],8.76 ± 0.46
8,AAAATAAATAGATAAGCACACAAGCATATAGACATA [CACACA_site7958],9.37 ± 0.55
9,AATATATTTATGCTCATGCACTTTTTTTTTTTTTTT [GTGCAC_site9654],8.85 ± 0.61
10,TATCAATATTAAAAAGTGCAAAATAAAATATAAAAT [GTGCAC_site9486],8.97 ± 0.39
11,TATATTATATATTGGGGTACATATATATAAATATAA [XGTACX_site2296],8.55 ± 0.18
12,TTATGTTGTAAATGCACACATACAAATACAGATACA [CACACA_site4876],9.06 ± 0.29
13,GAAAACAAATATGTAGCACACATTCACATAATATAT [CACACA_site8731],9.16 ± 0.45
14,ATAAATATAAAAATTTGTACATATATAGGTATAGGT [XGTACX_site1735],8.96 ± 0.47
15,ATTATAATGGTAAAGTGTACAAATTTTTATTACACC [XGTACX_site5274],8.9 ± 0.38
16,TCTTGTATATACAGTAGTACTAAAAATTATTAAATA [XGTACX_site7896],8.41 ± 0.42
17,ACATACAAGAATTAAACACACACAAAATATAAATTC [CACACA_site8985],9.62 ± 0.48
18,TGTTTTTTGTTCTTTACAAAAAAAAAAAAAAAAAAA [GTGCAC_negctrl_site61],8.21 ± 0.17
19,TTTATTTATTATTAAAGTACTAAATTACATTATTAT [XGTACX_site6624],8.52 ± 0.64
20,TATTTAATTACATGAACACACATTAGATATTTTTAA [CACACA_site7405],8.51 ± 0.4
21,CATTATTTACCGCCGTGTACGTAATGAGAAATTAAA [XGTACX_site4662],8.62 ± 0.48
22,TTATTTCAAATTAATTTACACACTTCATACTAAAAG [CACACA_site9039],8.64 ± 0.43
23,TAATAAAAAAAGTGCACACACATAATATTTATATAT [CACACA_site7548],9.14 ± 0.36
24,ACATGTTTTATGTGCACACAAAGTTGTTATGAGGTT [CACACA_site4031],9.72 ± 0.23
